# Results as given in US20250205200A1, “5-METHOXY-N,N-[…][…] THE TREATMENT OF […]” (GH RESEARCH IRELAND LIMITED, priority 2022, published 2025).
# System: patients with treatment-resistant major depressive disorder (TRD)
# Test: Phase 1/2 clinical trial of inhaled 5-MeO-DMT in patients with TRD (12 mg, 18 mg, IDR 6/12/18 mg)
# Details: for BPRS Anxiety percentage improvement: baseline 37
smiles,measurement,setting,value
COc1ccc2[nH]cc(CCN(C)C)c2c1 [5-MeO-DMT],MADRS Suicidal Thoughts summed score,"12 mg n=4, 2 h, baseline 8",3
same,MADRS Inner Tension percentage improvement,"12 mg n=4, 2 h, baseline 13",85%
same,MADRS Inner Tension summed score,"12 mg n=4, 2 h, baseline 13",2
same,MADRS Concentration Difficulties summed score,"12 mg n=4, 2 h, baseline 16",7
same,MADRS Inability to Feel summed score,"12 mg n=4, 2 h, baseline 16",9
same,MADRS Lassitude summed score,"12 mg n=4, 2 h, baseline 16",10
same,MADRS Pessimistic Thoughts summed score,"12 mg n=4, 2 h, baseline 16",8
same,BPRS Blunted Affect summed score,"12 mg n=4, 3 h, baseline 11",8
same,BPRS Tension summed score,"12 mg n=4, 3 h, baseline 14",9
same,BPRS Guilt Feelings summed score,"12 mg n=4, 3 h, baseline 18",9
same,MADRS Suicidal Thoughts summed score,"12 mg n=4, Day 1, baseline 8",5
same,BPRS Blunted Affect summed score,"12 mg n=4, Day 1, baseline 11",6
same,MADRS Reduced Sleep summed score,"12 mg n=4, Day 1, baseline 12",10
same,BPRS Emotional Withdrawal summed score,"12 mg n=4, Day 1, baseline 13",8
same,MADRS Inner Tension percentage improvement,"12 mg n=4, Day 1, baseline 13",77%
same,MADRS Inner Tension summed score,"12 mg n=4, Day 1, baseline 13",3
same,BPRS Tension percentage improvement,"12 mg n=4, Day 1, baseline 14",57%
same,BPRS Tension summed score,"12 mg n=4, Day 1, baseline 14",6
same,MADRS Concentration Difficulties percentage improvement,"12 mg n=4, Day 1, baseline 16",88%
same,MADRS Concentration Difficulties summed score,"12 mg n=4, Day 1, baseline 16",2
same,MADRS Inability to Feel summed score,"12 mg n=4, Day 1, baseline 16",1
same,MADRS Lassitude summed score,"12 mg n=4, Day 1, baseline 16",0
same,MADRS Pessimistic Thoughts summed score,"12 mg n=4, Day 1, baseline 16",7
same,BPRS Guilt Feelings percentage improvement,"12 mg n=4, Day 1, baseline 18",72%
same,BPRS Guilt Feelings summed score,"12 mg n=4, Day 1, baseline 18",5
same,BPRS Anxiety summed score,"12 mg n=4, Day 1, baseline 25",6
same,MADRS Suicidal Thoughts summed score,"12 mg n=4, Day 7, baseline 8",7
same,BPRS Blunted Affect summed score,"12 mg n=4, Day 7, baseline 11",5
same,MADRS Reduced Sleep summed score,"12 mg n=4, Day 7, baseline 12",6
same,BPRS Emotional Withdrawal summed score,"12 mg n=4, Day 7, baseline 13",6
same,MADRS Inner Tension percentage improvement,"12 mg n=4, Day 7, baseline 13",62%
same,MADRS Inner Tension summed score,"12 mg n=4, Day 7, baseline 13",5
same,BPRS Tension percentage improvement,"12 mg n=4, Day 7, baseline 14",57%
same,BPRS Tension summed score,"12 mg n=4, Day 7, baseline 14",6
same,MADRS Concentration Difficulties percentage improvement,"12 mg n=4, Day 7, baseline 16",81%
same,MADRS Concentration Difficulties summed score,"12 mg n=4, Day 7, baseline 16",3
same,MADRS Inability to Feel summed score,"12 mg n=4, Day 7, baseline 16",1
same,MADRS Lassitude percentage improvement,"12 mg n=4, Day 7, baseline 16",81%
same,MADRS Lassitude summed score,"12 mg n=4, Day 7, baseline 16",3
same,MADRS Pessimistic Thoughts summed score,"12 mg n=4, Day 7, baseline 16",8
same,BPRS Guilt Feelings percentage improvement,"12 mg n=4, Day 7, baseline 18",72%
same,BPRS Guilt Feelings summed score,"12 mg n=4, Day 7, baseline 18",5
same,BPRS Anxiety summed score,"12 mg n=4, Day 7, baseline 25",6
same,MADRS Suicidal Thoughts summed score,"IDR n=8, 2 h, baseline 11",3
same,MADRS Inner Tension percentage improvement,"IDR n=8, 2 h, baseline 26",58%
same,MADRS Lassitude summed score,"IDR n=8, 2 h, baseline 27",10
same,MADRS Pessimistic Thoughts summed score,"IDR n=8, 2 h, baseline 28",7
same,BPRS Emotional Withdrawal summed score,"IDR n=8, 3 h, baseline 13",8
same,BPRS Anxiety percentage improvement,"IDR n=8, 3 h",49%
same,MADRS Suicidal Thoughts summed score,"IDR n=8, Day 1, baseline 11",1
same,BPRS Emotional Withdrawal summed score,"IDR n=8, Day 1, baseline 13",8
same,BPRS Blunted Affect summed score,"IDR n=8, Day 1, baseline 15",8
same,MADRS Inner Tension percentage improvement,"IDR n=8, Day 1, baseline 26",77%
same,MADRS Inner Tension summed score,"IDR n=8, Day 1, baseline 26",6
same,MADRS Lassitude percentage improvement,"IDR n=8, Day 1, baseline 27",81%
same,MADRS Lassitude summed score,"IDR n=8, Day 1, baseline 27",5
same,MADRS Pessimistic Thoughts percentage improvement,"IDR n=8, Day 1, baseline 28",86%
same,MADRS Pessimistic Thoughts summed score,"IDR n=8, Day 1, baseline 28",4
same,MADRS Concentration Difficulties percentage improvement,"IDR n=8, Day 1, baseline 30",97%
same,MADRS Concentration Difficulties summed score,"IDR n=8, Day 1, baseline 30",1
same,BPRS Guilt Feelings percentage improvement,"IDR n=8, Day 1, baseline 34",68%
same,MADRS Inability to Feel summed score,"IDR n=8, Day 1, baseline 36",2
same,BPRS Anxiety percentage improvement,"IDR n=8, Day 1",57%
same,MADRS Suicidal Thoughts summed score,"IDR n=8, Day 7, baseline 11",3
same,BPRS Emotional Withdrawal summed score,"IDR n=8, Day 7, baseline 13",8
same,BPRS Blunted Affect summed score,"IDR n=8, Day 7, baseline 15",8
same,BPRS Tension summed score,"IDR n=8, Day 7, baseline 16",10
same,MADRS Reduced Sleep summed score,"IDR n=8, Day 7, baseline 25",9
same,MADRS Lassitude percentage improvement,"IDR n=8, Day 7, baseline 27",89%
same,MADRS Lassitude summed score,"IDR n=8, Day 7, baseline 27",3
same,MADRS Pessimistic Thoughts percentage improvement,"IDR n=8, Day 7, baseline 28",89%
same,MADRS Pessimistic Thoughts summed score,"IDR n=8, Day 7, baseline 28",3
same,MADRS Concentration Difficulties summed score,"IDR n=8, Day 7, baseline 30",9
same,BPRS Guilt Feelings percentage improvement,"IDR n=8, Day 7, baseline 34",71%
same,BPRS Guilt Feelings summed score,"IDR n=8, Day 7, baseline 34",10
same,MADRS Inability to Feel summed score,"IDR n=8, Day 7, baseline 36",6
same,Patients experiencing at least one ADR,Part A 12 mg,3 of 4
same,Proportion of patients with MADRS remission,"Part A 12 mg n=4, day seven",50%
same,Patients experiencing at least one ADR,Part A 18 mg,3 of 4
same,SAEs,Part A (12 mg and 18 mg),No SAEs were reported
same,Severity and outcome of ADRs,Part A (12 mg and 18 mg),mild and resolved spontaneously
same,Outcome of ADRs,Part B IDR,resolved spontaneously
same,SAEs,Part B IDR,No SAEs were reported
